Results reported in the supplement of paper PMC11417369.
The list shows a part of the results.

The sequences below were run on PF3D7_0420300 AP2 domain 1 (GST-tagged) (assay: gcPBM binding intensity (ln(normalized median fluorescence intensity)); higher = stronger DNA binding).
How it was run: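 Using an Agilent 4 × 180k array, primer-extended double-stranded 36-bp intergenic genomic probes and negative controls were exposed for 1 h to GST-fused P. falciparum DNA-binding domains expressed in E. coli. Binding was carried out in 1× PBS with 1% milk, 0.2 mg/ml BSA, 0.5% salmon testes DNA and 0.03% Triton X-100, and protein was detected with Alexa488 anti-GST antibody and a 488 nm scan. Binding intensity is the highest Masliner-normalised natural-log median intensity across replicate spots of either probe orientation.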

| Sequence | gcPBM binding intensity (ln) |
| --- | --- |
| GTTTAAAATCTTTGCACACATATAAATAAATATATT [CACACA_site2555] | 9.44 |
| AGTATATTAATATAATGTACAAACGTTTATTTTGTA [XGTACX_site5980] | 9.22 |
| GAAAAGTAGACAATATGTACATATAGTATTTATAAA [XGTACX_site878] | 9.25 |
| AGCAACCCCCTAGCTACACACATATAGATATAAATA [CACACA_site6577] | 10 |
| AAATATCTACATATTTGTACATATTTATACATATTT [XGTACX_site6300] | 9.23 |
| ATCATGTTATATATATGTACTAATAATATAATATAA [XGTACX_site1326] | 9.18 |
| GAATAATCTAGAAACACACAAACACGACAAAAGAAA [CACACA_site4135] | 9.75 |
| TACTAACTTTTTAAAAGTACAGAACCATAACCATAA [XGTACX_site7182] | 9.28 |
| ATATATATATATATATGGTAAAGTAAAAGGAAATAC [XGTACX_negctrl_site45] | 9.62 |
| AGTCGAATGATGTACACACATACAAAACATTTATGC [CACACA_site4022] | 9.69 |
| AGTTTATATTATTAAAGTACATATATATATTCTTAA [XGTACX_site3164] | 9.29 |
| CCAAACTAAATGTACACACATACATAAATATAAATA [CACACA_site1141] | 9.72 |
| ATGTAATAAATATACACACACAAATATATATATATA [CACACA_site2395] | 9.86 |
| ATATTTTCAGTTCTCCATTATGTTCCCATTATTTTT [CACACA_negctrl_site990] | 9.71 |
| CATGAATATTTTAATGTGCACATTTATCATTATATG | 9.32 |
| GTATAATTGGAAATTACACACCTTATAATGTAACAT [CACACA_site6091] | 9.38 |
| AATGATTTTAAAAAATGTACTTTATAAACAAAATTA [XGTACX_site3803] | 8.81 |
| TAAAGTGTCAAATTCACACACATATATATATATATA [CACACA_site1380] | 9.39 |
| TAAATTAGAATAAATACACACAAATTAGAATTCTAT [CACACA_site7781] | 9.51 |
| TTTTTTTTTGTTAGTTGTACGTTAAATGAATTTACT [XGTACX_site7675] | 9.21 |
| ATATTATATAACTTTTGTACGAACTATTTTATATAT [XGTACX_site6] | 9.56 |
| ACCTATGTATATTATACACACTCCAAACTATTCTTT [CACACA_site6939] | 9.7 |

| Sequence | gcPBM binding intensity (ln) |
| --- | --- |
| AAAAAAAAATATATATGTACATATGTATAATAAAAA [XGTACX_site2110] | 9.41 |
| TTTAGAGAAGTCAAGTGTACATATAAAATAATTCAC [XGTACX_site4997] | 9.19 |
| ATAAAAATAAATAAATTATATAAATGTAATATGAAA [GTGCAC_negctrl_site663] | 9.18 |
| TATTTATTTATATATGCATGCTAATAATTATAACAT [TGCATGCA_site988] | 9.15 |
| AATGAAGACTTTTTTACACACTTCATATATTATATA [CACACA_site2034] | 9.56 |
| AACATTTTAAAATAATGTACTTGAAAAAAAAACTAC [XGTACX_site8894] | 9.18 |
| TGTTCTAATATTTGTTGTACGTTTACGTTTCTCTCT [XGTACX_site18] | 9.42 |
| TATTTAAGAGTATGAACACACATCATACCCATATAA [CACACA_site5911] | 9.41 |
| CATATAAATAAATATACATGCATACATACATATATA [TGCATGCA_site713] | 9.28 |
| TTAATTTATGTTAATGGTACGTAAATGCATTTATTT [XGTACX_site3002] | 9.26 |
| ATTTAACCAAATAATATATTTAAAAAATAGTCACAT [CACACA_negctrl_site274] | 9.21 |
| TATAATATATGAAAAAGTACAAATATTTCGATGGTC [XGTACX_site129] | 9.52 |
| TTTTATAATTTGAGAACATGCAACATAAATATAAAG [TGCATGCA_site965] | 9.2 |
| TAACCAAAAAAAAATATTTAAAATAAATATATATAT [CACACA_negctrl_site1516] | 9.13 |
| TTTAGTTCATACTATGCACACTACGTATATTTTTAA [CACACA_site5484] | 9.43 |
| TATTTTCTCTTAAAAAGTACTCATATATACATTTAT [XGTACX_site7748] | 9.07 |
| ATAACATACATAACAACACACAATATTTATAGGTAT [CACACA_site6243] | 9.89 |
| CGTTATATATTTTATAGTACTTTTTGTAAATTTTTT [XGTACX_site7682] | 9.23 |
| ATTAATAAGAAGAAAAGTACAAAACAAAAAGATATA [XGTACX_site7473] | 9.65 |
| ATAATTTATATCATTACACACATTTTTTATATTTTT [CACACA_site3450] | 9.67 |
| TTTTTGAATGTTTGCACACAAATCTCATAATTTTAG [CACACA_site357] | 9.27 |
| TAGTTACATAAAATATGTACGTATAATTTTTTTATT [XGTACX_site3847] | 9.06 |
